Experimental data reported in PubChem BioAssay AID485294 (National Center for Advancing Translational Sciences (NCATS), 2010).
Out of some 370,000 compounds screened, about 150 (0.041%) were called active. Inconclusive means that the source gave no clear call. Such entries were picked first, then a sample of the others. The call rests on the fitted dose curve; in most records, active means well fitted inhibition curve with a large enough effect; inconclusive means small, poorly fitted or top-dose-only effect; inactive means flat fitted curve, though single readings scatter. Potencies of inconclusive entries are left out as doubtful fits.

biological target: Beta-lactamase (Escherichia coli (strain K12)) (UniProt P00811); experiment: qHTS Inhibitors of AmpC Beta-Lactamase (assay with detergent); conditions: AmpC hydrolysis of nitrocefin, absorbance 480 nm, 0.01% Triton; activity change, negative = inhibition: at 114 µM (top of the series); further: nearly all actives have a fitted effect of over 25% in size;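 on activity change, negative = inhibition: 0% = no-compound wells and -100% = no-enzyme wells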
Procedure, shortened: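 AmpC (5.3 nM in the dispensed reagent) in 20 mM phosphate pH 7.0 with 0.01% (detergent screen) or 0.0001% Triton X-100 was preincubated with compounds for 15 min at room temperature. Nitrocefin was then added from an 800 uM solution, and hydrolysis was followed at 480 nm.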
Potency means the concentration at half of the fitted maximal effect; tags describe the fitted curve by direction and shape.

Chain of UniProt P00811 (P00811 whole entry, looked up): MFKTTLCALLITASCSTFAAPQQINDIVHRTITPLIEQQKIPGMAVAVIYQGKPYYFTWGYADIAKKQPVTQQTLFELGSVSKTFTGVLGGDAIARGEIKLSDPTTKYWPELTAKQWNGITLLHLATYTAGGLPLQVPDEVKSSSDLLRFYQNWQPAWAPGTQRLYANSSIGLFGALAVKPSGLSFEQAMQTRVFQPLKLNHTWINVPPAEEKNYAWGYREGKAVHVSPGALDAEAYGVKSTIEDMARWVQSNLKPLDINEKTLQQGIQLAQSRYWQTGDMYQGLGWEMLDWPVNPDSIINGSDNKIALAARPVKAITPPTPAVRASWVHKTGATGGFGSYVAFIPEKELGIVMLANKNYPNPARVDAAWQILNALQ

| SMILES | activity change, negative = inhibition | Potency |
| --- | --- | --- |
| Cc1ccc(N(CC(=O)NCc2ccc(OC(C)C)cc2)S(=O)(=O)N(C)C)cc1 | inactive: 4.12% | – |
| O=C(NC(=O)c1ccccc1)Nc1ccccn1 | inactive: -0.896% | – |
| COc1ccc(C(CC(=O)N2CCCCC2)c2c(OC)cc(OC)c3c(-c4ccccc4)cc(=O)oc23)cc1 (stereo unspecified) | inactive: 2.38% | – |
| Cc1noc(C)c1C(=O)Nc1nccs1 | inactive: 1.95% | – |
| CCOc1ccc(CN2C(=O)c3ccccc3Sc3ccc(C(=O)NC4CCC(C)CC4)cc32)cc1 (stereo unspecified) | inactive: 2.84% | – |
| OC(CCCN1CCC(O)(c2ccc(Cl)cc2)CC1)c1ccc(F)cc1 (stereo unspecified) | – | inconclusive [inhibitor, full curve, poor fit] |
| Cc1c(C(=O)NCC2CCCO2)sc2nc(-c3ccc(F)cc3)cn12 (stereo unspecified) | – | inconclusive [inhibitor, full curve, poor fit] |
| Cc1ccc(N=Nc2c(N)[nH]n3c(=O)cc(-c4ccccc4)nc23)cc1 | – | inconclusive [inhibitor, partial curve, poor fit] |
| O=C(Cc1ccc(S(=O)(=O)N2CCOCC2)s1)OCc1ccc(Cl)cc1 | – | inconclusive [inhibitor, full curve, poor fit] |
| Cc1ccc(Cn2c(Cc3ccccc3)nc3ccccc32)cc1 | – | inconclusive [inhibitor, partial curve, poor fit] |
| Cc1cccc(Nc2nc(N)nc(-c3oc4ccccc4c3C)n2)c1 | inactive: -6.71% | – |
| Cc1cc(C)c(NC(=O)COC(=O)/C=C/c2cccs2)c(C)c1 | – | inconclusive [inhibitor, full curve, poor fit] |
| COC(=O)c1ccc(C(=O)OC)c(NC(=S)N2CCC(C)CC2)c1 | – | inconclusive [inhibitor, partial curve, poor fit] |
| O=c1c2ccccc2nc(-c2ccc(Cl)cc2)n1CCCCOc1ccc(F)cc1 | inactive: 12% | – |
| Cc1ccc(C(=O)C(OC(=O)COc2ccccc2C)c2ccccc2)cc1 (stereo unspecified) | – | inconclusive [inhibitor, partial curve, poor fit] |
| C/C(=N/NS(=O)(=O)c1ccc(C)cc1)c1ccc(NC(=O)C(F)(F)F)cc1 | – | inconclusive [inhibitor, full curve] |
| CCc1ccccc1NC(=O)N1CCC(NC(=O)C(Cc2ccc(OC)c(OC)c2)NC(C)=O)CC1 (stereo unspecified) | – | inconclusive [inhibitor, partial curve] |
| CCN(c1ccccc1)S(=O)(=O)c1ccc(Cl)c(NC(=O)CN2CCCCCC2)c1 | – | inconclusive [inhibitor, partial curve] |
| C/C(=C1/C(=O)N(c2ccc([N+](=O)[O-])cc2)N=C1c1ccccc1)N(C)C | – | inconclusive [inhibitor, full curve, poor fit] |
| CCn1cc(/C=N\NC(=O)c2ccc3c(c2)c(C)c(C)n3Cc2ccccc2)c(C)n1 | inactive: 1.46% | – |
| Oc1c(C(Nc2ccccn2)c2ccccn2)ccc2cccnc12 (stereo unspecified) | – | inconclusive [inhibitor, full curve, poor fit] |

| SMILES | activity change, negative = inhibition | Potency |
| --- | --- | --- |
| CC(=O)c1cccc(NC(=O)c2ccc(N(Cc3ccccc3C)S(C)(=O)=O)cc2)c1 | – | inconclusive [inhibitor, partial curve, poor fit] |
| O=S(=O)(c1ccccc1)c1nc(-c2ccccc2)oc1NCCCN1CCOCC1 | – | inconclusive [inhibitor, full curve, poor fit] |
| O=C(NCc1ccccn1)c1nnc(Cc2ccc(Cl)cc2)o1 | – | inconclusive [inhibitor, full curve, poor fit] |
| CCOc1ccc(C(=O)Nc2cc(-c3nc4ccccc4[nH]3)ccc2Cl)cc1[N+](=O)[O-] | – | inconclusive [inhibitor, full curve, poor fit] |
| CCN(CC)S(=O)(=O)c1ccc(Cl)c(NC(=O)COC(=O)/C=C/c2ccc(O)c(OC)c2)c1 | – | inconclusive [inhibitor, full curve, poor fit] |
| CCOc1cc(CN2CCCCCC2)ccc1OC | – | inconclusive [inhibitor, full curve, poor fit] |
| CCCN1CCN(CCCNC(=O)c2ccc3c(Cl)c4c(nc3c2)CCCC4)CC1 | – | inconclusive [inhibitor, full curve, poor fit] |
| Cc1cnc(C(=O)OCC(=O)NC(C)C)cn1 | – | inconclusive [inhibitor, full curve, poor fit] |
| COc1ccc(-c2csc(Nc3ccccc3)n2)cc1 | inactive: -2.3% | – |
| COc1ccc(N(CC(=O)Nc2ccc(OC)c(Cl)c2)S(=O)(=O)c2c(C)noc2C)cc1 | – | inconclusive [inhibitor, full curve, poor fit] |
| Cc1noc(NS(=O)(=O)c2ccc(NC(=O)/C=C/c3ccc(C(C)C)cc3)cc2)c1C | inactive: 4.69% | – |
| CC(=O)c1c(O)cc(=O)n(-c2ccccc2)c1-c1ccc(Cl)cc1 | – | inconclusive [inhibitor, partial curve, poor fit] |
| Cc1c(C(=O)NC2CCCCC2)sc2ncnc(N3CCN(c4ccccc4)CC3)c12 | – | inconclusive [inhibitor, full curve, poor fit] |
| CC(C)c1ccc(OCC(=O)N2CCCCCC2)c(Br)c1 | – | inconclusive [inhibitor, single point] |
| O=C(ONC1=NCCCCC1)c1c(F)cccc1F | inactive: -5.34% | – |
| Cc1ccc(NC(=O)C2CCN(S(=O)(=O)c3ccc4c(c3)OCCO4)CC2)nc1 | – | inconclusive [inhibitor, full curve, poor fit] |
| COc1ccccc1NC(=O)C1=C(C)Nc2nc(SCc3ccccc3)nn2C1c1cccs1 (stereo unspecified) | – | inconclusive [inhibitor, full curve] |
| CC1=CC(C)(C)N2C(=O)C3(SCC(=O)N3c3ccc(F)cc3)c3cc(C)cc1c32 (stereo unspecified) | inactive: -12.1% | – |
| CC(=O)c1ccc(S(=O)(=O)Nc2cccc(-c3ccc(N4CCCC4)nn3)c2)cc1 | inactive: 0.16% | – |
| COc1cccc(C(C(=O)NCc2ccco2)N(Cc2ccco2)C(=O)Cn2nnc3ccccc32)c1 (stereo unspecified) | – | inconclusive [inhibitor, full curve, poor fit] |
